# Laboratory results as given in the supplement of paper PMC11417369.
# Some of the results follow.
# System: PF3D7_0420300 AP2 domain 1 (GST-tagged)
# Assay: gcPBM binding intensity (ln(normalized median fluorescence intensity)); higher = stronger DNA binding
# Outline: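 Each value is the highest Masliner-normalised natural-log median intensity across replicate spots of either orientation of a probe. The probes were primer-extended double-stranded 36-bp intergenic genomic sequences on an Agilent 4 × 180k array, alongside negative controls, exposed for 1 h to GST-tagged P. falciparum DNA-binding domains expressed in E. coli. Bound protein was picked up with Alexa488 anti-GST antibody and scanned at 488 nm.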
row,Sequence,gcPBM binding intensity (ln)
1,ACATAACTGATATATACACACAATACAAATATAGAT [CACACA_site7328],9.93
2,AAATGTGCATTATGTTGTACAGTCGAAATTTTTTTT [XGTACX_site3812],9.19
3,AAATTAAAAAGAGCTTGTACAGATGTATACATAATA [XGTACX_site3882],9.49
4,TTTATAATTCTTACAACACACAATGTACATTTATAT [CACACA_site1261],9.42
5,AATTTATATGTTTTGTGTACACAATTTATTAAATTA [XGTACX_site6448],9.27
6,TATATGAAGCTATAGACACACATATAAAAATAGAAT [CACACA_site1313],9.47
7,TACATACAGATATATACACACATATAAAATATAGAT [CACACA_site6319],9.86
8,ATTATATATAAATATACACACATATATAAAATACAT [CACACA_site5298],9.65
9,AAGAGAAAAATATGGTTGCACTAAAAATATATATTT,9.17
10,TAATTTGAAAAATTGTGTACTCATAAAATAAATAAA [XGTACX_site2138],9
11,GATTTATATATATAAAATAATTGAATATTTTCTTTT [CACACA_negctrl_site801],8.96
12,ATAAAAAAATAAAACACACACATATAGATTATAGAT [CACACA_site7343],9.99
13,ATAGATGATATACGTAAACACACAAATAAAAAAAAT [CACACA_site9095],9.72
14,TTTATTTTTCATAATTGTACAAAAATAAATGGAAAC [XGTACX_site5144],9.19
15,TACAAATATAGACACACACACATATATATATATATA [CACACA_site585],9.66
16,ATAAAAGGAATATTTGCATGTGGTAGTACATAACAT [TGCATGCA_site978],9.44
17,CATATATCATAAATATGTACGAAATAAAAGAATCAT [XGTACX_site942],9.54
18,TTTTCTAAAATATTCATAATAAATCAAAAAAAAAAA [GTGCAC_negctrl_site320],8.81
19,TATAAATATGTATATACACACTTTTAATATTCATAA [CACACA_site7856],9.2
20,TTTTCTTACTATTGTAGTACAATATTATATTCTTTT [XGTACX_site1925],9.46
21,TGCGTATTCTTATTAGGTACACATATTCGTGATAAT [XGTACX_site5681],9.25
22,ATCGTGAATAATATCTGTACATATGAACACATATAT [XGTACX_site952],9.38
23,TCACATACATGAAAATGTACTTTTATAATTCCATAA [XGTACX_site1836],9.19

row,Sequence,gcPBM binding intensity (ln)
1,TATGACCTTAGAAATTGTACAAGAAAAAATGTTACA [XGTACX_site7084],9.11
2,ATATAAAATACATGGGTGCAATATATTAAACAAATA [GTGCAC_site9421],9.49
3,GTTATAAATAAATACACACATACAAAAATATGACGT [CACACA_site1154],9.78
4,TCTGTAAATACGTGCACACACAAATCACAAATGTGA [CACACA_site330],9.51
5,TAAATAATTTCACGAATGACAAAGATATAATAAGTT [CACACA_negctrl_site1430],9.5
6,TAAAGGTGAACAATACGTACATAAGAACTTATGAGG [XGTACX_site4216],9.32
7,ATAAATACACACAAGTGTACATACTTCTATAAATAT [XGTACX_site1845],9.36
8,TATTATATATTAAATGCATGTAAAAATAATATTAAA [TGCATGCA_site643],9.12
9,AATTATTTACCCTATACACACAAAACACGCTAAAAA [CACACA_site1211],9.81
10,ATATTATAATAAATGTGTACATATTGTAGAAATATT [XGTACX_site8101],9.4
11,ATTTTGTGCGCACACACATGCAAAAAGAAATATGAT [TGCATGCA_site261],9.73
12,AAAGAGAGTATCTAATGTACGTATGTATGTATATAT [XGTACX_site1780],9.47
13,TTTCGTAACTATTTGTGTACATATATATATATATAT [XGTACX_site2920],9.25
14,ATTTTCTTTTCCATAGTGCAATATAATTATCCATCA [GTGCAC_site9547],9.29
15,ATAAATATATGAAATATACACACTTCTTTGGTATTA [CACACA_site456],9.32
16,TTTCCATATATAGAACGTACAAAGATCTTTGTTACT [XGTACX_site8972],9.14
17,ATACATATATATATGTGTACATATTATATATACATA [XGTACX_site8420],9.2
18,TATATATGGTATAATTGTACTAACGCCAACTATACC [XGTACX_site5853],9.19
19,TAGCTTTTGCCTTTTTTTAAAAAAAAATAAATAAAT [TGCATGCA_negctrl_site242],8.65
20,TATATATATTTATACACACAAACATAATACTACTTA [CACACA_site2022],9.62
21,TGCATATACATATGTAGTACAATAATTTGAAAAAAA [XGTACX_site5239],9.09
22,TTTTTTTTTATGTGCACACAAAAGATGCTTATATTT [CACACA_site2348],9.42
